Here are results for eleven molecules from US20250163125A1 (Pfizer, published 2025).

Test [1] concerns the target T1, recombinant cynomolgus CD2 (cynomolgus monkey, UniProt Q6SZ61 25-209, limits assumed, biotinylated (site not stated)).
T1 construct: also called cyno recombinant CD2; cyno CD2
T1 sequence (looked up): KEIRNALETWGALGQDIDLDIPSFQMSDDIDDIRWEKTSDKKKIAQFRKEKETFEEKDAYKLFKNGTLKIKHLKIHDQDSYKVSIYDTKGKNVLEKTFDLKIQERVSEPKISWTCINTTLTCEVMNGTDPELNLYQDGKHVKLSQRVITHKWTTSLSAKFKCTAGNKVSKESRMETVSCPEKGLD
Briefly: SPR, cyno recombinant CD2.

Test [2] has as its target T2, recombinant human CD2 (human, UniProt P06729 25-209, biotinylated (site not stated)).
T2 construct: It was captured on a streptavidin chip in SPR; also called hCD2-biotin; human recombinant CD2
T2 sequence: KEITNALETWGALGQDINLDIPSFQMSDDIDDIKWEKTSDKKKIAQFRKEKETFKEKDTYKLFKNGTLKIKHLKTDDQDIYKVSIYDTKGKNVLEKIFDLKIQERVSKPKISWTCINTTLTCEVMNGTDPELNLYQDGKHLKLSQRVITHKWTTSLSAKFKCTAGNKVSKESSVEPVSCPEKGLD
Briefly: SPR (Biacore T200), biotinylated CD2 on SA chip, equilibrium model.

For test [3], the target named is T1, recombinant cynomolgus CD2. Described as above.
Test [4] deals with T2, recombinant human CD2. Briefly: SPR (Biacore T200): biotinylated CD2 captured on a streptavidin chip, LFA3-Fc variant injected, equilibrium binding model; n=4-7.
Test [5] addresses T2, recombinant human CD2. Nature of the test: SPR (Biacore T200): biotinylated CD2 captured on a streptavidin chip, LFA3-Fc variant injected, equilibrium binding model; n=1-3 exp.
The target of test [6] is T1, recombinant cynomolgus CD2. Briefly: SPR (Biacore T200): biotinylated cyno CD2 captured on a streptavidin chip, LFA3-Fc variant injected, equilibrium binding model; average of triplicate measurements.
Test [7] has as its target T2, recombinant human CD2. Briefly: SPR (Biacore T200): biotinylated human CD2 captured on a streptavidin chip, LFA3-Fc variant injected, equilibrium binding model; average of triplicate measurements.
The target of test [8] is T1, recombinant cynomolgus CD2. Nature of the test: Biacore CD2 binding.
A further test has as its target T3, mouse CD2 (mouse, UniProt P08920 23-203, limits assumed).
T3 sequence (looked up): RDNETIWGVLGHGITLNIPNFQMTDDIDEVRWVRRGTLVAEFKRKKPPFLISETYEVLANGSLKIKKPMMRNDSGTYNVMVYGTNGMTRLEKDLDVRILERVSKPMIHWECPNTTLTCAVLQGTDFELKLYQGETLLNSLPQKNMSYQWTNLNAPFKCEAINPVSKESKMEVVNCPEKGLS
Nature of the test: Biacore CD2 binding.

The next test addresses T4, rat CD2 (rat, UniProt P08921 23-202, limits assumed).
T4 sequence (looked up): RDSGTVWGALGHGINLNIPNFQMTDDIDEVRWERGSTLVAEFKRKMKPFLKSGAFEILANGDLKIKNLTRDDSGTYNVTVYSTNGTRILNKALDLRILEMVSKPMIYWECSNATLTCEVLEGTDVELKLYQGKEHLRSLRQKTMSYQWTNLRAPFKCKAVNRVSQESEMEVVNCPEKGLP
Briefly: Biacore CD2 binding.

B1: LFA3-Fc WT (wild type LFA3-Fc fusion protein) (Fc fusion)
chain: FSQQIYGVVYGNVTFHVPSNVPLKEVLWKKQKDKVAELENSEFRAFSSFKNRVYLDTVSGSLTIYNLTSSDEDEYEMESPNITDTMKFFLYV[human IgG1 Fc not shown]
notes: also called WT LFA3-Fc; LFA3-WT
Turning to B1, the Kd in [1] was 1500 nM; with recombinant human CD2 [2], 1410 to 1470 nM; in [3] it was 1500 nM; with recombinant human CD2 [4] it was 1410 nM; with recombinant human CD2 [5] it was 1410 nM; in test [6], 1500 nM. For the same molecule, in the test with recombinant human CD2 [7], the dissociation constant Kd was 1470 nM.

B2: CM3d1-Pfe (Fc fusion)
LFA3 domain-Fc fusion chain: FSQQIYGVVYGNVTFHVPSNVPLKEVLWKKQKDKVVEFENSEVRAFSSFKNRVYLDTVSGSLTIYNLTSSDEDEYEMESRNPYRDFKFFLYVL[human IgG1 Fc not shown]
notes: Second-generation Loop library design
With B2, the Kd with recombinant human CD2 [5] is 88 nM.

B3: LFA3-Fc M1d1 (M1d1 LFA3-Fc fusion protein) (Fc fusion)
chain: FSQQIYGVVYGNVTFHVPSNVPLKEVLWKKQKDKVVEFENSEVRAFSSFKNRVYLDTVSGSLTIYNLTSSDEDEYEMESPNITDTFKFFLYVL[human IgG1 Fc not shown]
notes: also called M1d1-Pfe
On to B3, for which the Kd in [8] is 1350 nM; in test [1], 1060 nM; in test [3] it was 1060 nM; in test [6] it was 1060 nM; in the test with recombinant human CD2 [7], 1080 nM. Moreover, the binding result with mouse CD2 and with rat CD2 was “no binding” in each case.

B4: ML3d1-Pfe (Fc fusion)
LFA3 domain-Fc fusion chain: FSQQIYGVVYGNVTFHVPSNVPLKEVLWKKQKDKVVEFENSEVRAFSSFKNRVYLDTVSGSLTIYNLTSSDEDEYEMEARYPYRQFKFFLYVL[human IgG1 Fc not shown]
notes: Second-generation Loop library clone
On to B4, for which the Kd with recombinant human CD2 [5] turned out to be 52 nM.

B5: CM1d1-Pfe (Fc fusion)
LFA3 domain-Fc fusion chain: FSQQIYGVVYGNVTFHVPSNVPLKEVLWKKQKDKVVEFENSEVRAFSSFKNRVYLDTVSGSLTIYNLTSSDEDEYEMESRNGGPDFKFFLYVL[human IgG1 Fc not shown]
notes: as for B2
Take B5: the Kd with recombinant human CD2 [5] was 130 nM.

B6: ML1d1-Pfe (Fc fusion)
LFA3 domain-Fc fusion chain: FSQQIYGVVYGNVTFHVPSNVPLKEVLWKKQKDKVVEFENSEVRAFSSFKNRVYLDTVSGSLTIYNLTSSDEDEYEMEGRYPYESFKFFLYVL[human IgG1 Fc not shown]
notes: as for B4
Take B6: the Kd with recombinant human CD2 [5] is 82 nM.

B7: M7-d1-Pfe (Fc fusion)
LFA3 domain-Fc fusion chain: FSQQIYGVVYGNVTFHVPSNVPLKEVLWKKQKDKVVEFENSEVRAFSSFKNRVYLDTVSGSLTIYNLTSSDEDEYEMESPNITDTMKFFLYVL[human IgG1 Fc not shown]
For the molecule B7, in the test with recombinant human CD2 [4], the Kd came to 920 nM.

B8: CM6d1-Pfe (Fc fusion)
LFA3 domain-Fc fusion chain: FSQQIYGVVYGNVTFHVPSNVPLKEVLWKKQKDKVVEFENSEVRAFSSFKNRVYLDTVSGSLTIYNLTSSDEDEYEMESWNPYRDFKFFLYVL[human IgG1 Fc not shown]
notes: as for B2
As for B8, in the test with recombinant human CD2 [5], the Kd was 61 nM.

B9: CM5d1-Pfe (Fc fusion)
LFA3 domain-Fc fusion chain: FSQQIYGVVYGNVTFHVPSNVPLKEVLWKKQKDKVVEFENSEVRAFSSFKNRVYLDTVSGSLTIYNLTSSDEDEYEMESWNPYRRFKFFLYVL[human IgG1 Fc not shown]
notes: as for B2
Take B9: the Kd with recombinant human CD2 [5] was found to be 63 nM.

B10: CM2d1-Pfe (Fc fusion)
LFA3 domain-Fc fusion chain: FSQQIYGVVYGNVTFHVPSNVPLKEVLWKKQKDKVVEFENSEVRAFSSFKNRVYLDTVSGSLTIYNLTSSDEDEYEMESRNPYRRFKFFLYVL[human IgG1 Fc not shown]
notes: as for B2
Turning to B10, the Kd in the test with recombinant human CD2 [5] amounted to 100 nM.

B11: M4d1-Pfe (Fc fusion)
LFA3 domain-Fc fusion chain: FSQQIYGVVYGNVTFHVPSNVPLKEVLWKKQKDKVVEFENSEVRVFSSFKNRVYLDTVSGSLTIYNLTSSDEDEYEFESPNITDTFKFFLYVL[human IgG1 Fc not shown]
As to B11, the dissociation constant (Kd) with recombinant human CD2 [4] and with recombinant human CD2 [5] was 750 nM throughout.
